Consider 87 molecules from publication PMC4336329 (PLoS ONE, 2015).

SMILES strings stand for the structures. Screen size: about 310,000 compounds; about 2,200 (0.71%) showed an effect of 50% or more. Effects have a minus sign here. The list shows a part of the results.

For the assay, the target named is human ether-à-go-go-related gene (hERG) potassium channel (human, UniProt Q12809). Briefly: primary screen, population patch clamp on CHO cells stably expressing hERG.
Sequence of human ether-à-go-go-related gene (hERG) potassium channel (Q12809 whole entry, looked up): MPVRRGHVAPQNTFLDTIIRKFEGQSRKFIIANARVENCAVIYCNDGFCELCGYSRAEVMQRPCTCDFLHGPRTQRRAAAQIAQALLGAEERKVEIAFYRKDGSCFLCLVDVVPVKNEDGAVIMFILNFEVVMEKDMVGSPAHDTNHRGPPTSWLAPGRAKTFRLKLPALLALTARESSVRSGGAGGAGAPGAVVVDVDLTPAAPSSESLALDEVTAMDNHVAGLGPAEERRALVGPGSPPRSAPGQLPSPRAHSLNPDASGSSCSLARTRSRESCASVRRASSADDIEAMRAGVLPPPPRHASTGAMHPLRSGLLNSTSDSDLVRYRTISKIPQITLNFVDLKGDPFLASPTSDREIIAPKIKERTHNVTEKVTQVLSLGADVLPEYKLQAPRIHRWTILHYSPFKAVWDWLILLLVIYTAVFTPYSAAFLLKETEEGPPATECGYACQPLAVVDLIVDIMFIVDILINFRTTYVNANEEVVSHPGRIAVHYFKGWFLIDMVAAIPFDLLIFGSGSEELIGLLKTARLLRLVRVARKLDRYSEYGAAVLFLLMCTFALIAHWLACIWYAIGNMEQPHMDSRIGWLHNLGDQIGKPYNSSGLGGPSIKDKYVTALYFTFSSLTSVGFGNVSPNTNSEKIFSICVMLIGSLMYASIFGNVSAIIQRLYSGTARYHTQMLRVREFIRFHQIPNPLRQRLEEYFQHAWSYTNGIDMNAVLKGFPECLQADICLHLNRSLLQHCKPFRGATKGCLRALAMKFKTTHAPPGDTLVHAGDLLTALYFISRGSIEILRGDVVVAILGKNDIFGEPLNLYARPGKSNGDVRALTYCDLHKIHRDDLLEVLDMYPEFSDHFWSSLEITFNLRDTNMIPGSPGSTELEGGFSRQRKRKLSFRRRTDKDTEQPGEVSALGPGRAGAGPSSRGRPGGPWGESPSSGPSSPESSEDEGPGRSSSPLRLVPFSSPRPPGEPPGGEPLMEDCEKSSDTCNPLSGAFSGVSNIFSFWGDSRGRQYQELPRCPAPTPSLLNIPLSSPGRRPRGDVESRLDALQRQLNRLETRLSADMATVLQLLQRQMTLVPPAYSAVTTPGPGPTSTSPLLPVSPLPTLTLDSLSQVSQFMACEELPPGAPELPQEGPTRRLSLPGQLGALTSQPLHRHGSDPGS
Regarding `Cc1ccc(F)cc1NC(=O)CN1C(=O)NC(C)(c2ccc3c(c2)OCCO3)C1=O` (stereo not drawn), the “hERG current change (%, negative = inhibition) at 1uM” value worked out at 2.55%.
In the case of `Cc1cccc(C)c1NC(=O)CN(C)C(=O)c1ccccc1Sc1ccccc1C#N`, the “hERG current change (%, negative = inhibition) at 1uM” value is reported as 23.3%.
In the case of `O=C(Nc1ccccc1)N1CCN(c2cccc(C(F)(F)F)c2)CC1`, the “hERG current change (%, negative = inhibition) at 1uM” value was determined as 17.5%.
As to `O=C(Nc1ccc(C(F)(F)F)cc1)c1ccc2ncsc2c1`, the “hERG current change (%, negative = inhibition) at 1uM” value came out at 13.1%.
Turning to `Cn1cccc1/C=N/NC(=O)C12CC3CC(CC(C3)C1)C2`, the “hERG current change (%, negative = inhibition) at 1uM” value was 8.06%.
Take `O=C(OCCc1cc2ccccc2c(=O)o1)c1ccc(C(F)(F)F)cc1`: the “hERG current change (%, negative = inhibition) at 1uM” value was determined as 16.3%.
For `Cc1ccc2c(c1)CCCN2S(=O)(=O)c1cccc(C(=O)Nc2ccccc2C(=O)O)c1`, the “hERG current change (%, negative = inhibition) at 1uM” value is recorded as 0.441%.
For the molecule `O=C(NCc1ccc(F)cc1)C1CCN(c2cnccn2)CC1`, the “hERG current change (%, negative = inhibition) at 1uM” value is reported as -33.6%.
Consider `O=C(Nc1c(Cl)ccc2nsnc12)c1cccnc1`, for which the “hERG current change (%, negative = inhibition) at 1uM” value was 12.2%.
The value for `CCCNC(=O)Cc1c(O)c2ccccc2[nH]c1=O` was 16.8%; that for `CCOC(=O)N1CCc2c(sc(NC(=O)C3=COCCO3)c2C(N)=O)C1` was 8.89%.
As for `CN(CCN1CCOCC1)Cc1nc(-c2cccs2)no1`, the “hERG current change (%, negative = inhibition) at 1uM” value was determined as 12.8%.
The value for `COc1cc2c(cc1OC)CC[N+](C)=C2.[I-]` was 13.5%; that for `O=C(NCc1ccc2c(c1)OCO2)c1ccc(CS(=O)Cc2ccc(Cl)cc2)o1` (stereo not drawn) was 3.03%; that for `Cc1ccc2nc(NC(=S)NC(=O)c3cccs3)sc2c1` was 10.1%.
Regarding `O=C(CSc1nc2ccccc2s1)N1N=C(c2cccs2)CC1c1ccc(F)cc1` (stereo not drawn), the “hERG current change (%, negative = inhibition) at 1uM” value amounted to 4.73%.
On to `O=c1[nH][nH]c(C(F)(F)F)c1C=NCc1cccs1`, for which the “hERG current change (%, negative = inhibition) at 1uM” value is given as 5.98%.
With `CCc1ccc(OCc2cnc(Cl)s2)cc1`, the “hERG current change (%, negative = inhibition) at 1uM” value came to 9.33%.
For `CCCCn1c(SCC(=O)Nc2ccc(C)c(S(=O)(=O)N3CCOCC3)c2)nnc1C(CC)N(C)C` (stereo not drawn) the value was -6.49%.
For the molecule `CN(C)c1ccc(P(=O)(OC2CCCCC2)C(O)c2cccnc2)cc1` (stereo not drawn), the “hERG current change (%, negative = inhibition) at 1uM” value is listed as -8.69%.
For `O=[N+]([O-])c1cc(S(=O)(=O)N2CCCC2)ccc1OCc1ccccc1`, the “hERG current change (%, negative = inhibition) at 1uM” value worked out at 12.9%.
As for `CC(=O)Nc1ccc(NC(=O)CSc2nc3c([nH]c4ccccc43)c(=O)n2-c2ccccc2F)cc1`, the “hERG current change (%, negative = inhibition) at 1uM” value came to 22.6%.
The value for `CCn1c(SCCOc2ccc(OC)cc2)nnc1C(CO)NC(=O)c1ccc(OC)cc1` (stereo not drawn) was -2.03%.
On to `CCOc1ccc(-c2nnc(N3CCOCC3)c3ccccc23)cc1`, for which the “hERG current change (%, negative = inhibition) at 1uM” value was 3.43%.
Regarding `Cc1ccc(-c2nc(NC(=O)c3nn(C)cc3[N+](=O)[O-])sc2C)cc1C`, the “hERG current change (%, negative = inhibition) at 1uM” value is given as -0.746%.
In the case of `CCOc1ccccc1NC(=O)N1CCCN(c2ncccc2C#N)CC1`, the “hERG current change (%, negative = inhibition) at 1uM” value was 12.8%.
For `Nc1nc(N)c(Cc2ccc(Cl)cc2Cl)c(N)n1` the value was 19.5%; for `CC(=O)Nc1ccc(S(=O)(=O)Nc2nnc(Cc3ccc(Cl)cc3)s2)cc1`, 14.9%.
As to `O=C(O)c1cccc(NC(=S)NC(=O)c2ccncc2)c1`, the “hERG current change (%, negative = inhibition) at 1uM” value was determined as 8.94%.
Regarding `Cc1nn(C)c(C)c1CCC(=O)N1CCCC(N2CCN(c3ccc(F)cc3)CC2)C1` (stereo not drawn), the “hERG current change (%, negative = inhibition) at 1uM” value was 0.801%.
Consider `O=C(CSc1nnc(-c2ccccn2)o1)Nc1ccccc1F`, for which the “hERG current change (%, negative = inhibition) at 1uM” value came to 5.57%.
The value for `CC(C)N1C(=S)SC(C)(C)C1n1oc(=O)n(-c2cccc(Cl)c2)c1=O` (stereo not drawn) was 8.79%; that for `CCCC(=O)Nc1cccc(NC(=O)c2ccccc2Br)c1` was 7.21%; that for `O=C(CCc1ccc(S(=O)(=O)N2CCOCC2)cc1)Nc1nc(COc2ccccc2)cs1` was 4.66%.
Regarding `CN1C(=O)NC(=O)/C(=C/c2ccc([N+](=O)[O-])s2)C1=O`, the “hERG current change (%, negative = inhibition) at 1uM” value was 7.77%.
For the molecule `CCCCn1nc2cc(C(=O)NCc3ccc4c(c3)OCO4)ccc2c1OCC`, the “hERG current change (%, negative = inhibition) at 1uM” value came out at 30.6%.
Consider `C=CC1=C(C(=O)O)N2C(=O)C(NC(=O)Cc3ccccc3)C2SC1` (stereo not drawn), for which the “hERG current change (%, negative = inhibition) at 1uM” value was 12.1%.
For `Cc1noc(C)c1C(=O)Nc1sc(C)c(C)c1C#N`, the “hERG current change (%, negative = inhibition) at 1uM” value is recorded as 10.8%.
For the molecule `Cc1cc(C(=O)OCC(=O)NCc2ccccc2)c(C)o1`, the “hERG current change (%, negative = inhibition) at 1uM” value turned out to be 8.98%.
For `CN(C)c1nc(NCc2ccccc2)nc(SCC(=O)Nc2ccccc2Cl)n1` the value was 17.1%.
For `C/C(=N\Nc1ccc2nncn2n1)c1ccccn1`, the “hERG current change (%, negative = inhibition) at 1uM” value is reported as 17.7%.
For the molecule `CC(C)c1ccc(/C=C2\SC(=S)N(CCC(=O)N3CCCCC3CCO)C2=O)cc1` (stereo not drawn), the “hERG current change (%, negative = inhibition) at 1uM” value is listed as 23.5%.
Regarding `CCCc1cc(=O)[nH]c2nnc(SCC(=O)Nc3cc(C)on3)n12`, the “hERG current change (%, negative = inhibition) at 1uM” value stood at 15.4%.
For `CCOC(=O)CN(C(=O)COc1nc(-c2ccccc2)cc(C)c1C#N)c1ccc(F)cc1`, the “hERG current change (%, negative = inhibition) at 1uM” value was 6.09%.
Regarding `COc1ccc(CC2(CO)CCN(Cc3cccnc3)CC2)cc1`, the “hERG current change (%, negative = inhibition) at 1uM” value amounted to 1.4%.
Consider `Cc1cccn2c(=O)c(/C=C3\SC(=S)NC3=O)c(NCCCN3CCOCC3)nc12`, for which the “hERG current change (%, negative = inhibition) at 1uM” value came to 7.48%.
For `CCOC(=O)c1ccc2[nH]c3c(c2c1)CCCCC3=O` the value was 11.8%.
`O=[N+]([O-])c1ccccc1S(=O)(=O)N(CC(O)CN1CCCCC1)c1ccccc1` (stereo not drawn): the “hERG current change (%, negative = inhibition) at 1uM” value amounted to 2.79%.
As for `CC(=O)Nc1nonc1-c1nc2ccccc2n1Cc1nnc(C)o1`, the “hERG current change (%, negative = inhibition) at 1uM” value is listed as 4.4%.
Consider `CC(=O)N1CCCc2cc(S(=O)(=O)CCC(=O)N3CCN(c4cccc(C)c4)C(C)C3)ccc21` (stereo not drawn), for which the “hERG current change (%, negative = inhibition) at 1uM” value amounted to 9.91%.
For `O=C(COC(=O)COc1ccc(Cl)cc1)Nc1ccc(N2CCOCC2)cc1`, the “hERG current change (%, negative = inhibition) at 1uM” value is listed as 18.3%.
For `O=C1CCN(Cc2ccccc2)CCN1[C@H](COc1ccccc1)Cc1ccccc1`, the “hERG current change (%, negative = inhibition) at 1uM” value is -7.61%.
On to `Nc1cc(-c2ccc(Cl)cc2)nn1S(=O)(=O)c1ccccc1`, for which the “hERG current change (%, negative = inhibition) at 1uM” value came to 14.5%.
In the case of `CCCS(=O)(=O)N1CCN(Cc2ccccc2C(F)(F)F)CC1.O=C(O)C(=O)O`, the “hERG current change (%, negative = inhibition) at 1uM” value is listed as -1.7%.
With `COc1cccc(CCC(=O)N2CCC(n3nccc3NC(=O)C3CCOC3)CC2)c1` (stereo not drawn), the “hERG current change (%, negative = inhibition) at 1uM” value was 14.1%.
`CCn1c(CNc2nc3ccccc3n2C(C)C)nc2ccccc21`: the “hERG current change (%, negative = inhibition) at 1uM” value was -10.1%.
For `Nc1nc2c(s1)COc1ccccc1-2` the value was 13.7%; for `CC1(CCc2ccccc2)NC(=O)N(CC(=O)Nc2ccccc2)C1=O` (stereo not drawn), 10.2%; for `COc1cccc(NC(=O)c2ccc3snnc3c2)c1`, 10.3%.
Regarding `CC1=C(C(=O)Nc2ccc(CC(=O)NCc3ccc(OC(C)C)cc3)cc2)SCCO1`, the “hERG current change (%, negative = inhibition) at 1uM” value stood at 10.4%.
`Cc1cc(C)c(C(=O)COc2cccnc2[N+](=O)[O-])cc1C`: the “hERG current change (%, negative = inhibition) at 1uM” value stood at 8.78%.
In the case of `O=C(COC(=O)c1c2c(nc3ccccc13)CCCCC2)NCc1ccc2c(c1)OCO2`, the “hERG current change (%, negative = inhibition) at 1uM” value is listed as 8.11%.
With `Cc1ccnc(NC(=O)CCNS(=O)(=O)c2ccc(C)c(C)c2)c1`, the “hERG current change (%, negative = inhibition) at 1uM” value was determined as 8.17%.
Consider `CCN(CC)CCN1C(=O)c2ccccc2NC1c1ccc(Br)cc1` (stereo not drawn), for which the “hERG current change (%, negative = inhibition) at 1uM” value was -82.8%.
Turning to `COc1cc(C(=O)O[C@H]2C/C(C)=C/CC[C@@]3(C)O[C@@H]3[C@H](O)[C@@H]2C(C)C)cc(OC)c1OC`, the “hERG current change (%, negative = inhibition) at 1uM” value was found to be 7.07%.
Regarding `O=C(Nc1ccc(Cl)c(Cl)c1)N1CC=CCC1`, the “hERG current change (%, negative = inhibition) at 1uM” value is 7.3%.
As for `COCCCNC(=O)CC1Oc2ccccc2NC1=O` (stereo not drawn), the “hERG current change (%, negative = inhibition) at 1uM” value worked out at 4.19%.
For `Cc1ccc(C)c(N2CCN(C(=O)CNS(=O)(=O)c3cccs3)CC2)c1`, the “hERG current change (%, negative = inhibition) at 1uM” value is 7.88%.
Take `COC(=O)C1=C(C(=O)OC)[C@@H]2N(C)c3ccc(OC)cc3[C@@]23C[C@@H](C(=O)OC)N(S(=O)(=O)c2ccc([N+](=O)[O-])cc2)C3=N1`: the “hERG current change (%, negative = inhibition) at 1uM” value was 8.39%.
For `CCN(CC)C(=O)COc1ccc2oc(C)c(C(=O)OC(C)C)c2c1`, the “hERG current change (%, negative = inhibition) at 1uM” value is on record as 11.8%.
Turning to `Cc1c(C(=O)NCCN2C(=O)S/C(=C\c3cccnc3)C2=O)cccc1[N+](=O)[O-]`, the “hERG current change (%, negative = inhibition) at 1uM” value was -7.45%.
On to `CN=C(C)/C(C(=O)OC)=C(/O)c1ccccc1F`, for which the “hERG current change (%, negative = inhibition) at 1uM” value came out at 10.5%.
For `CNC(=O)CCSc1ccc(C)cc1` the value was 22.1%.
For `CCN(CC)S(=O)(=O)c1ccc(NN)nc1` the value was 6.6%; for `COc1ccccc1N1CCN(CCCCOc2cccc3ccccc23)CC1.Cl`, 9.44%; for `Cc1cc(C)cc(-n2ccnc2SCC(=O)Nc2ccc3c(c2)OCCO3)c1`, 4.72%.
Consider `COc1ccc(NC(=O)CC2C(=O)N(c3ccc(OC)cc3)C(=S)N2NC(=O)c2cccc(F)c2)cc1` (stereo not drawn), for which the “hERG current change (%, negative = inhibition) at 1uM” value is 7.6%.
`O=C(NC(=S)Nc1cccc(Cl)c1)c1cncc(Br)c1`: the “hERG current change (%, negative = inhibition) at 1uM” value was determined as 13.3%.
As for `CC(C)(C)OC(=O)[C@H](Cc1ccccc1)NC(=O)c1[nH]cnc1C(=O)Nc1ccc(Cl)cc1`, the “hERG current change (%, negative = inhibition) at 1uM” value was found to be 14%.
`O=C(c1ccco1)N1CCN(C(=O)c2cnn3c2NC(c2cccs2)CC3C(F)(F)F)CC1` (stereo not drawn): the “hERG current change (%, negative = inhibition) at 1uM” value was -3.66%.
The value for `CCOC(=O)CN(C(=O)COc1nc(C)cc(C)c1C#N)c1ccc(F)cc1` was 0.234%; that for `Cc1ccc2nsnc2c1NC(=O)c1ccccc1[N+](=O)[O-]` was 15.7%; that for `c1ccc(-c2ccncc2)nc1` was 20.9%.
Regarding `CCOc1ccccc1NC(=O)CSc1nnc(CNC(=O)c2ccccc2F)o1`, the “hERG current change (%, negative = inhibition) at 1uM” value is recorded as 7.37%.
In the case of `CC(C)(Oc1ccc(Cl)cc1)C(=O)N/N=C/c1cn[nH]c1-c1ccccc1`, the “hERG current change (%, negative = inhibition) at 1uM” value came out at 3%.
Regarding `C=CCn1c(=O)c2ccccc2n2c(Sc3nnnn3-c3ccccc3)nnc12`, the “hERG current change (%, negative = inhibition) at 1uM” value was 9.73%.
As to `Cc1ccc(/C=N/Nc2nncn2N)cc1.Cl`, the “hERG current change (%, negative = inhibition) at 1uM” value amounted to 17.9%.
